Some of the results follow.

One test has as its system HSkMC. The test can be described thus: cytotoxicity call (relative viability < 0.9). The note with it: 10 µM.
In a further test the test system is HepG2. The test can be described thus: cytotoxicity call (relative viability < 0.9). Particulars: 10 µM.
The next test relates to S. aureus RN4220. The experiment in a line: growth inhibition call (relative growth <= 0.2). Particulars: 50 µM.

Turning to `C[C@@H]1CN([C@@H](C)CO)C(=O)c2cc(NC(=O)Nc3ccccc3)ccc2O[C@@H]1CN(C)CC1CCCCC1`, the cytotoxicity call in the test with HSkMC and in the test on HepG2 was “inactive” in each case. Moreover, the growth inhibition call in the test with S. aureus RN4220 is “inactive”.
As for `Cc1cccc(S(=O)(=O)N2C[C@@H](O)COC[C@H]3O[C@@H](CC(=O)N4CCN(C)CC4)CC[C@@H]32)c1`, the cytotoxicity call with HSkMC and in the test with HepG2 was “inactive” throughout. The growth inhibition call in the test on S. aureus RN4220 is “inactive”.
With `CC(=O)Nc1cccc(NC(C)=O)n1`, the cytotoxicity call with HSkMC and in the test with HepG2 was “inactive” in each case. The growth inhibition call with S. aureus RN4220 is “inactive”.
As for `COc1ccc(NC(=O)N(C)C[C@@H]2OCCCC[C@@H](C)Oc3ccc(NS(=O)(=O)c4ccc(OC)cc4)cc3C(=O)N([C@H](C)CO)C[C@H]2C)cc1`, the cytotoxicity call with HSkMC and in the test with HepG2 was “inactive” in each case. Further, the growth inhibition call in the test on S. aureus RN4220 was “inactive”.
As to `COc1ccc(S(=O)(=O)N(C)C[C@@H]2Oc3ccc(NC(=O)c4ccncc4)cc3CC(=O)N([C@H](C)CO)C[C@H]2C)cc1`, the cytotoxicity call in the test on HSkMC and in the test on HepG2 was “inactive” each time. Moreover, the growth inhibition call in the test with S. aureus RN4220 is “inactive”.
Take `C[C@@H]1CCCCO[C@@H](CN(C)C(=O)Nc2ccccc2)[C@H](C)CN([C@@H](C)CO)C(=O)c2cc(NC(=O)Nc3ccccc3)ccc2O1`: the cytotoxicity call in the test with HSkMC and with HepG2 was “inactive” throughout. Also, the growth inhibition call with S. aureus RN4220 was “inactive”.
Turning to `CCCCCCCCCCCCCCCC(=O)C(F)(F)F`, the cytotoxicity call in the test on HSkMC and in the test on HepG2 was “inactive” throughout. Further, the growth inhibition call in the test on S. aureus RN4220 was “inactive”.
On to `CC(C)NC(=O)N(C)C[C@@H]1Oc2c(NC(=O)Nc3ccc4c(c3)OCO4)cccc2C(=O)N([C@H](C)CO)C[C@@H]1C`, for which the cytotoxicity call in the test with HSkMC and with HepG2 was “inactive” in each case. The growth inhibition call in the test on S. aureus RN4220 is “inactive”.
Take `CC(C)(C)OC(=O)Cn1ccc(=O)[nH]c1=O`: the cytotoxicity call in the test on HSkMC and in the test on HepG2 was “inactive” in each case. Besides, the growth inhibition call in the test on S. aureus RN4220 is “inactive”.
As to `C[C@H]1CCCCO[C@@H](CN(C)Cc2ccc(C(F)(F)F)cc2)[C@@H](C)CN([C@@H](C)CO)C(=O)c2cc(NC(=O)C3CCCCC3)ccc2O1`, the cytotoxicity call in the test on HSkMC and in the test on HepG2 was “inactive” in each case. Moreover, the growth inhibition call in the test with S. aureus RN4220 was “inactive”.
`COc1ccc2c3c(n(c2c1)C)[C@H](CO)N(C[C@]13CCN(CC1)C(=O)Nc1cccc(c1)F)C(=O)C1CCCCC1`: the cytotoxicity call in the test with HSkMC and with HepG2 was “inactive” each time. Further, the growth inhibition call with S. aureus RN4220 is “inactive”.
`C[C@H](CO)N1C[C@H](C)[C@@H](CN(C)C(=O)Cc2cccnc2)Oc2ncc(C#Cc3ccccc3F)cc2C1=O`: the cytotoxicity call with HSkMC and in the test on HepG2 was “inactive” each time. In addition, the growth inhibition call in the test on S. aureus RN4220 was “inactive”.
For `C[C@@H]1CCCCO[C@@H](CN(C)S(=O)(=O)c2ccc(Cl)cc2)[C@H](C)CN([C@@H](C)CO)C(=O)c2cc(NS(=O)(=O)c3cccs3)ccc2O1`, the cytotoxicity call in the test on HSkMC was “inactive”. In addition, in the test on HepG2, the cytotoxicity call was “active”. In the test on S. aureus RN4220, the growth inhibition call is “inactive”.
In the case of `COc1ccc(S(=O)(=O)Nc2ccc3c(c2)C(=O)N([C@@H](C)CO)C[C@H](C)[C@@H](CN(C)C(=O)Nc2ccc(C(F)(F)F)cc2)OCCCC[C@H](C)O3)cc1`, in the test on HSkMC, the cytotoxicity call is “inactive”. Also, the cytotoxicity call with HepG2 is “active”. Besides, the growth inhibition call with S. aureus RN4220 is “inactive”.
In the case of `Cc1ccc(S(=O)(=O)Nc2ccc3c(c2)CC(=O)N([C@@H](C)CO)C[C@H](C)[C@@H](CN(C)Cc2ccc(C(F)(F)F)cc2)O3)cc1`, the cytotoxicity call in the test with HSkMC and in the test on HepG2 was “active” in each case. In addition, the growth inhibition call in the test on S. aureus RN4220 was “inactive”.
In the case of `CC1CCC2(C(=O)O)CCC3(C)C(=CCC4C5(C)CCC(O)C(C)(C)C5CCC43C)C2C1C` (centres undefined), the cytotoxicity call in the test with HSkMC and with HepG2 was “active” in each case. Besides, the growth inhibition call in the test with S. aureus RN4220 was “inactive”.
Consider `CCCC#Cc1cnc2c(c1)C(=O)N([C@@H](C)CO)C[C@@H](C)[C@@H](CN(C)S(=O)(=O)c1cccc(OC)c1)O2`, for which the cytotoxicity call with HSkMC and with HepG2 was “inactive” in each case. Further, in the test with S. aureus RN4220, the growth inhibition call was “inactive”.
For `CC(=O)N1[C@@H](CO)[C@@H](c2ccccc2)C12CN(C(=O)CN1CCOCC1)C2`, the cytotoxicity call in the test on HSkMC and in the test with HepG2 was “inactive” in each case. Besides, the growth inhibition call in the test with S. aureus RN4220 was “inactive”.
As to `O=C(NCCCN1CCOCC1)[C@@H]1[C@@H](CO)[C@@H]2Cn3c(ccc(C4=CCCCC4)c3=O)[C@H]1N2`, the cytotoxicity call in the test on HSkMC and in the test on HepG2 was “inactive” throughout. Also, in the test with S. aureus RN4220, the growth inhibition call was “inactive”.
For `C[C@@H]1CN([C@H](C)CO)C(=O)c2cc(NC(=O)Nc3ccc4c(c3)OCO4)ccc2O[C@@H](C)CCCCO[C@@H]1CN(C)S(=O)(=O)c1cccs1`, the cytotoxicity call in the test with HSkMC and in the test with HepG2 was “inactive” each time. For the same molecule, the growth inhibition call with S. aureus RN4220 is “inactive”.
Regarding `C[N+](C)(C)CCCC[C@@H]1NC(=O)[C@H]2C[C@@H](C(=O)NCCCCCCNC(=O)CS)[C@@H](c3cccc(OCCO)c3)N2C1=O`, the cytotoxicity call with HSkMC and with HepG2 was “inactive” throughout. Also, the growth inhibition call with S. aureus RN4220 is “inactive”.
As to `C[C@H](CO)N1C[C@H](C)[C@@H](CN(C)CC2CCCCC2)Oc2ccc(NS(=O)(=O)c3cn(C)cn3)cc2C1=O`, the cytotoxicity call in the test with HSkMC and with HepG2 was “inactive” each time. In addition, the growth inhibition call in the test on S. aureus RN4220 was “inactive”.
As to `C/C=C/c1ccc2c(c1)O[C@H](CN(C)S(=O)(=O)c1ccc(C)cc1)[C@H](C)CN([C@H](C)CO)S2(=O)=O`, the cytotoxicity call in the test on HSkMC and with HepG2 was “inactive” in each case. Further, in the test with S. aureus RN4220, the growth inhibition call is “inactive”.
On to `Cc1noc(C)c1NC(=O)N(C)C[C@@H]1Oc2ccc(NC(=O)Nc3cccc4ccccc34)cc2CC(=O)N([C@@H](C)CO)C[C@H]1C`, for which the cytotoxicity call in the test on HSkMC and in the test on HepG2 was “inactive” each time. In addition, the growth inhibition call with S. aureus RN4220 is “inactive”.
Take `C[C@@H]1CN([C@@H](C)CO)C(=O)Cc2cc(NC(=O)Cc3cn(C)c4ccccc34)ccc2O[C@@H]1CN(C)C`: the cytotoxicity call in the test on HSkMC and in the test on HepG2 was “inactive” throughout. In the test on S. aureus RN4220, the growth inhibition call is “inactive”.
Take `N[C@H]1CCCN(Cc2cccs2)C1`: the cytotoxicity call in the test on HSkMC and in the test with HepG2 was “inactive” in each case. The growth inhibition call in the test with S. aureus RN4220 is “inactive”.
For the molecule `Nc1ncc2[nH]cnc2n1`, the cytotoxicity call in the test with HSkMC and in the test with HepG2 was “inactive” throughout. For the same molecule, the growth inhibition call in the test on S. aureus RN4220 was “inactive”.
With `C[C@H](CO)N1C[C@H](C)[C@H](CN(C)C(=O)c2ccncc2)OCCCC[C@H](C)Oc2ccc(NC(=O)NC3CCCCC3)cc2C1=O`, the cytotoxicity call in the test on HSkMC (human skeletal muscle cells) and in the test on HepG2 was “inactive” throughout. The growth inhibition call in the test on S. aureus RN4220 was “inactive”.

Values taken from the antibiotic and cytotoxicity screens of Wong et al. (2023).
